Measured values: publication PMC9911399, “Two distinct binding modes provide the RNA-binding protein RbFox with extraordinary sequence specificity”
Substitutions are numbered along the chain they refer to; changes in the protein carry UniProt numbers. The list shows a part of the results.

T1: RBFOX1 RRM (Homo sapiens, UniProt Q9NWB1 109-208)
T1 sequence: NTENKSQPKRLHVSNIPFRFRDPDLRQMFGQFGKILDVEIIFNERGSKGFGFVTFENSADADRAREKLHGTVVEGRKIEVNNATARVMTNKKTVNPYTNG

B1: GGGUGCA (DNA:RNA)
RNA: GGGAGACCGGAAUUCAGAUUGUCCGGGUGCAUUAAAUCCCGUCGUAGCCACCA
DNA 1: CAATCTGAATTCCGGTCTCCC
DNA 2: TGGTGGCTACGACGGGATT
B2: CGUCCUG (DNA:RNA)
RNA: B1 RNA with G25C, G27U, U28C, G29C, C30U, A31G
DNA 1: CAATCTGAATTCCGGTCTCCC
DNA 2: TGGTGGCTACGACGGGATT
B3: UUUUCUG (DNA:RNA)
RNA: B1 RNA with G25U, G26U, G27U, G29C, C30U, A31G
DNA 1: CAATCTGAATTCCGGTCTCCC
DNA 2: TGGTGGCTACGACGGGATT
B4: AGAUGAC (DNA:RNA)
RNA: B1 RNA with G25A, G27A, C30A, A31C
DNA 1: CAATCTGAATTCCGGTCTCCC
DNA 2: TGGTGGCTACGACGGGATT
B5: UAGAAUU (DNA:RNA)
RNA: B1 RNA with G25U, G26A, U28A, G29A, C30U, A31U
DNA 1: CAATCTGAATTCCGGTCTCCC
DNA 2: TGGTGGCTACGACGGGATT
B6: AGAUCAU (DNA:RNA)
RNA: B1 RNA with G25A, G27A, G29C, C30A, A31U
DNA 1: CAATCTGAATTCCGGTCTCCC
DNA 2: TGGTGGCTACGACGGGATT
B7: AUUAGUA (DNA:RNA)
RNA: B1 RNA with G25A, G26U, G27U, U28A, C30U
DNA 1: CAATCTGAATTCCGGTCTCCC
DNA 2: TGGTGGCTACGACGGGATT
B8: AAAAUGU (DNA:RNA)
RNA: GGGAGACCGGAAUUCAGAUUGUCCAAAAUGUUUAAAUCCCGUCGUAGCCACCA
DNA 1: CAATCTGAATTCCGGTCTCCC
DNA 2: TGGTGGCTACGACGGGATT
B9: CAGAGGA (DNA:RNA)
RNA: B8 RNA with A25C, A27G, U29G, U31A
DNA 1: CAATCTGAATTCCGGTCTCCC
DNA 2: TGGTGGCTACGACGGGATT
B10: UAGUGUU (DNA:RNA)
RNA: B1 RNA with G25U, G26A, C30U, A31U
DNA 1: CAATCTGAATTCCGGTCTCCC
DNA 2: TGGTGGCTACGACGGGATT
B11: GUUGUGU (DNA:RNA)
RNA: B8 RNA with A25G, A26U, A27U, A28G
DNA 1: CAATCTGAATTCCGGTCTCCC
DNA 2: TGGTGGCTACGACGGGATT
B12: ACGACGA (DNA:RNA)
RNA: B8 RNA with A26C, A27G, U29C, U31A
DNA 1: CAATCTGAATTCCGGTCTCCC
DNA 2: TGGTGGCTACGACGGGATT
B13: GCUGUCA (DNA:RNA)
RNA: B1 RNA with G26C, G27U, U28G, G29U
DNA 1: CAATCTGAATTCCGGTCTCCC
DNA 2: TGGTGGCTACGACGGGATT
B14: GCAUAAU (DNA:RNA)
RNA: B8 RNA with A25G, A26C, A28U, U29A, G30A
DNA 1: CAATCTGAATTCCGGTCTCCC
DNA 2: TGGTGGCTACGACGGGATT
B15: ACUAGCU (DNA:RNA)
RNA: B8 RNA with A26C, A27U, U29G, G30C
DNA 1: CAATCTGAATTCCGGTCTCCC
DNA 2: TGGTGGCTACGACGGGATT
B16: GGUUACU (DNA:RNA)
RNA: B1 RNA with G27U, G29A, A31U
DNA 1: CAATCTGAATTCCGGTCTCCC
DNA 2: TGGTGGCTACGACGGGATT
B17: UUGCAUG (DNA:RNA)
RNA: B1 RNA with G25U, G26U, U28C, G29A, C30U, A31G
DNA 1: CAATCTGAATTCCGGTCTCCC
DNA 2: TGGTGGCTACGACGGGATT
B18: UCGUAGA (DNA:RNA)
RNA: B1 RNA with G25U, G26C, G29A, C30G
DNA 1: CAATCTGAATTCCGGTCTCCC
DNA 2: TGGTGGCTACGACGGGATT
B19: CCCGCGC (DNA:RNA)
RNA: B8 RNA with A25C, A26C, A27C, A28G, U29C, U31C
DNA 1: CAATCTGAATTCCGGTCTCCC
DNA 2: TGGTGGCTACGACGGGATT
B20: AGCGGCC (DNA:RNA)
RNA: B1 RNA with G25A, G27C, U28G, A31C
DNA 1: CAATCTGAATTCCGGTCTCCC
DNA 2: TGGTGGCTACGACGGGATT
B21: GACUCGG (DNA:RNA)
RNA: B8 RNA with A25G, A27C, A28U, U29C, U31G
DNA 1: CAATCTGAATTCCGGTCTCCC
DNA 2: TGGTGGCTACGACGGGATT
B22: GAACACC (DNA:RNA)
RNA: B8 RNA with A25G, A28C, U29A, G30C, U31C
DNA 1: CAATCTGAATTCCGGTCTCCC
DNA 2: TGGTGGCTACGACGGGATT
B23: CGCCUUG (DNA:RNA)
RNA: B8 RNA with A25C, A26G, A27C, A28C, G30U, U31G
DNA 1: CAATCTGAATTCCGGTCTCCC
DNA 2: TGGTGGCTACGACGGGATT
B24: ACACAUA (DNA:RNA)
RNA: B8 RNA with A26C, A28C, U29A, G30U, U31A
DNA 1: CAATCTGAATTCCGGTCTCCC
DNA 2: TGGTGGCTACGACGGGATT
B25: GUUAGUC (DNA:RNA)
RNA: B1 RNA with G26U, G27U, U28A, C30U, A31C
DNA 1: CAATCTGAATTCCGGTCTCCC
DNA 2: TGGTGGCTACGACGGGATT
B26: CAUCCGG (DNA:RNA)
RNA: B8 RNA with A25C, A27U, A28C, U29C, U31G
DNA 1: CAATCTGAATTCCGGTCTCCC
DNA 2: TGGTGGCTACGACGGGATT
B27: GAAAUAG (DNA:RNA)
RNA: B8 RNA with A25G, G30A, U31G
DNA 1: CAATCTGAATTCCGGTCTCCC
DNA 2: TGGTGGCTACGACGGGATT
B28: GAGCGUC (DNA:RNA)
RNA: B1 RNA with G26A, U28C, C30U, A31C
DNA 1: CAATCTGAATTCCGGTCTCCC
DNA 2: TGGTGGCTACGACGGGATT
B29: CAUAUGC (DNA:RNA)
RNA: B8 RNA with A25C, A27U, U31C
DNA 1: CAATCTGAATTCCGGTCTCCC
DNA 2: TGGTGGCTACGACGGGATT
B30: AUUUUCG (DNA:RNA)
RNA: B8 RNA with A26U, A27U, A28U, G30C, U31G
DNA 1: CAATCTGAATTCCGGTCTCCC
DNA 2: TGGTGGCTACGACGGGATT
B31: UGGAUAC (DNA:RNA)
RNA: B8 RNA with A25U, A26G, A27G, G30A, U31C
DNA 1: CAATCTGAATTCCGGTCTCCC
DNA 2: TGGTGGCTACGACGGGATT

The binders below were run against T1, RBFOX1 RRM (assay: EMSA; HiTS-Eq, 1 nM pool, 10 min; buffer printed only for the single-RNA assays: 10 mM Tris pH 7.5, 150 mM NaCl, 3.4 mM EDTA, 0.001% NP-40, 30 C). Details: tags: His6 N-terminal (pET28a); label: 5' 32P.
Outline: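 Purified RbFox RRM (wild type or mutant) was equilibrated for 10 min in 50 µL with 1 nM of a 5′-radiolabelled pool of RNA with 7 randomized nucleotides, its flanks annealed to DNA oligonucleotides, across increasing protein concentrations. Free RNA was separated by 8% native PAGE, excised, reverse-transcribed, PCR-barcoded and sequenced on an Illumina HiSeq 2500. Relative association constants came from read-count changes of each variant against the control reaction, normalised to the cognate motif.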
For B1, the binding signal was 0.0415 KA relative to UGCAUGU. With B2 the binding signal was 0.0127 KA relative to UGCAUGU. B3 was tested, and the binding signal was 0.0286 KA relative to UGCAUGU. B4 was tested, and the binding signal was 0.008 KA relative to UGCAUGU. B5 was tested, and the binding signal was 0.00627 KA relative to UGCAUGU. B6 was tested, and the binding signal was 0.000692 KA relative to UGCAUGU. In the case of B7, the binding signal is reported as 0.00672 KA relative to UGCAUGU. In the case of B8, the binding signal is reported as 0.00225 KA relative to UGCAUGU. In the case of B9, the binding signal is reported as 0.00799 KA relative to UGCAUGU. With B10 the binding signal was 0.0155 KA relative to UGCAUGU. With B11 the binding signal was 0.0226 KA relative to UGCAUGU. In the case of B12, the binding signal is reported as 0.00391 KA relative to UGCAUGU. With B13 the binding signal was 0.0121 KA relative to UGCAUGU. In the case of B14, the binding signal is reported as 0.00163 KA relative to UGCAUGU. In the case of B15, the binding signal is reported as 0.00211 KA relative to UGCAUGU. For B16, the binding signal was 0.0106 KA relative to UGCAUGU. For B17, the binding signal was 1 KA relative to UGCAUGU. With B18 the binding signal was 0.0142 KA relative to UGCAUGU. With B19 the binding signal was 0.0137 KA relative to UGCAUGU. B20 was tested, and the binding signal was 0.0153 KA relative to UGCAUGU. B21 was tested, and the binding signal was 0.0114 KA relative to UGCAUGU. For B22, the binding signal was 0.00172 KA relative to UGCAUGU. For B23, the binding signal was 0.0242 KA relative to UGCAUGU. For B24, the binding signal was 0.00211 KA relative to UGCAUGU. With B25 the binding signal was 0.0119 KA relative to UGCAUGU. With B26 the binding signal was 0.000667 KA relative to UGCAUGU. B27 was tested, and the binding signal was 0.00818 KA relative to UGCAUGU. With B28 the binding signal was 0.0142 KA relative to UGCAUGU. For B29, the binding signal was 0.0071 KA relative to UGCAUGU. With B30 the binding signal was 0.016 KA relative to UGCAUGU. With B31 the binding signal was 0.0222 KA relative to UGCAUGU.
